Experimental findings from the BET-seq Pho4 binding data (Le et al. 2018) are described below.

The other results are listed elsewhere or left out. The energies were worked out here from pooled read counts, against the library average; single values are noisy.

The assay addresses T1, Pho4 (S. cerevisiae) (UniProt P07270).
T1 sequence: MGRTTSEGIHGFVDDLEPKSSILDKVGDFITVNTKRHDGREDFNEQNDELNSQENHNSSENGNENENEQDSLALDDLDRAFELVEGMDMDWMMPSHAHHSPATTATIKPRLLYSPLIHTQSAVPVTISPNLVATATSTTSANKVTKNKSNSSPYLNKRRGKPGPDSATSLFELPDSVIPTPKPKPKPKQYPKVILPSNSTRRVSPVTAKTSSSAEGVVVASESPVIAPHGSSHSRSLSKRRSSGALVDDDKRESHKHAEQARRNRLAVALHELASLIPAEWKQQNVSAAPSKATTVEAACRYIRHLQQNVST
The experiment in a line: relative binding free energy (BET-seq); higher = weaker binding. The note with it: reference: library average.
For GAGAGCACGTGCGGTG, the “relative binding free energy” value was -0.09 kcal/mol.

Regarding CTAGACACGTGGTAGT, the “relative binding free energy” value is -0.12 kcal/mol. For the sequence GGTTGCACGTGTTAGC, the “relative binding free energy” value was 0.17 kcal/mol.

As to ACTGTCACGTGGATGT, the “relative binding free energy” value was 0.08 kcal/mol. As for TGGGCCACGTGGTATA, the figure is -0.12 kcal/mol. The value for ATATACACGTGCTGGG was -0.11 kcal/mol. As for ATTCTCACGTGTTGAG, the figure is 0.19 kcal/mol; as for TGGGACACGTGCTGGT, -0.04 kcal/mol. Regarding ATAGACACGTGCTGGG, the “relative binding free energy” value amounted to 0.03 kcal/mol. On to TTCATCACGTGATTGT, for which the “relative binding free energy” value was 0.47 kcal/mol. The value for GTGGACACGTGGAATG was 0.15 kcal/mol; that for TTATCCACGTGCGTGT was -0.11 kcal/mol; that for ACTGACACGTGGGTGT was -0.08 kcal/mol. The value for TCGCTCACGTGGGGCG was 0.02 kcal/mol; that for CTAATCACGTGGGATG was 0.08 kcal/mol. As for CGTTACACGTGTGCTT, the figure is 0.16 kcal/mol; as for ATTATCACGTGGCATG, -0.03 kcal/mol.

Consider AGAGACACGTGGTGGA, for which the “relative binding free energy” value was -0.06 kcal/mol.

As for TTTTACACGTGTTATC, the “relative binding free energy” value came out at 0.11 kcal/mol.

As for TGGTCCACGTGTCTGG, the “relative binding free energy” value turned out to be 0.05 kcal/mol. As for ATTGTCACGTGCAAGT, the figure is 0.15 kcal/mol; as for ATGTGCACGTGATTGT, 0.22 kcal/mol; as for CATGGCACGTGTGTGG, -0.06 kcal/mol. Turning to TAGAGCACGTGGTTGA, the “relative binding free energy” value is -0.11 kcal/mol. As to CTAGGCACGTGAATGG, the “relative binding free energy” value came out at 0.21 kcal/mol. Take TAAGTCACGTGATCGT: the “relative binding free energy” value was found to be 0.2 kcal/mol. For GGTTACACGTGGTGAG, the “relative binding free energy” value was 0.1 kcal/mol. As for TGGTGCACGTGTAGTA, the “relative binding free energy” value stood at 0 kcal/mol. The value for GTGCTCACGTGGAGAA was 0.38 kcal/mol; that for TTCAGCACGTGATGTG was 0 kcal/mol. The value for GTTAGCACGTGGGGCT was -0.35 kcal/mol; that for CGAGACACGTGGTGGT was -0.09 kcal/mol; that for GGGTGCACGTGAGGAA was 0.28 kcal/mol. As for AGTACCACGTGGTTGT, the figure is -0.18 kcal/mol. Consider GCGGGCACGTGTGGAC, for which the “relative binding free energy” value came out at 0.02 kcal/mol. As for TATTACACGTGTAGTA, the figure is 0.04 kcal/mol. In the case of GGTTACACGTGAATTT, the “relative binding free energy” value was 0.33 kcal/mol.

Take AGGGGCACGTGGCGGT: the “relative binding free energy” value is -0.27 kcal/mol.

Turning to AAACTCACGTGGGGGT, the “relative binding free energy” value was 0.18 kcal/mol. In the case of GGGTACACGTGGAACG, the “relative binding free energy” value was found to be 0.18 kcal/mol.

On to ATGTGCACGTGGCGGG, for which the “relative binding free energy” value is -0.15 kcal/mol. On to GCTTTCACGTGCGGTA, for which the “relative binding free energy” value is 0.27 kcal/mol.

In the case of GGTGGCACGTGTAGGT, the “relative binding free energy” value was 0 kcal/mol.

GTTGGCACGTGAACTG: the “relative binding free energy” value came to 0.12 kcal/mol. As for GCTTTCACGTGAGGTT, the figure is 0.44 kcal/mol. The value for CGGAGCACGTGAATGG was 0.1 kcal/mol. As for CAGGTCACGTGCATGT, the figure is 0.02 kcal/mol; as for GGGTGCACGTGTAGTC, 0.1 kcal/mol. For TTATGCACGTGATTAG, the “relative binding free energy” value was 0.12 kcal/mol. The value for TGAGCCACGTGGGTTC was -0.05 kcal/mol; that for TTGACCACGTGTTATT was 0.03 kcal/mol; that for CTGTGCACGTGTCTTG was 0.06 kcal/mol. As for TCGGTCACGTGATTGT, the figure is 0.23 kcal/mol; as for GGATACACGTGCGGTG, 0.09 kcal/mol; as for ATTAGCACGTGGGTAA, -0.3 kcal/mol. The value for GGAAACACGTGGGGTG was -0.11 kcal/mol. On to TTTCGCACGTGCGAGG, for which the “relative binding free energy” value was -0.07 kcal/mol. The value for ATCTACACGTGGAGGG was 0.07 kcal/mol; that for GTCAACACGTGGTTTG was 0.17 kcal/mol; that for GTCAGCACGTGGTTTT was -0.17 kcal/mol. As for TGGCTCACGTGTTGTT, the figure is 0.14 kcal/mol. As for ATAATCACGTGTTGTG, the figure is 0.02 kcal/mol; as for GTTGTCACGTGAGGGC, 0.31 kcal/mol; as for TGGGTCACGTGATAAA, 0.35 kcal/mol.

Consider TTAATCACGTGGGTCG, for which the “relative binding free energy” value is -0.07 kcal/mol. As to CGGATCACGTGGGTTA, the “relative binding free energy” value was -0.06 kcal/mol. The value for AAGCTCACGTGAGTGG was 0.26 kcal/mol. Turning to TGGACCACGTGGTCGG, the “relative binding free energy” value is -0.06 kcal/mol.

Consider CTGATCACGTGGGTGC, for which the “relative binding free energy” value was determined as 0.08 kcal/mol. The value for GTTGTCACGTGTAGTG was 0.25 kcal/mol. AATGGCACGTGTGGTC: the “relative binding free energy” value is 0.04 kcal/mol. As for AGTGCCACGTGGTTAT, the “relative binding free energy” value is -0.27 kcal/mol. As for TAGGCCACGTGAATTT, the figure is 0.31 kcal/mol. The value for ACGGACACGTGGGCGG was -0.17 kcal/mol; that for TGCATCACGTGTAGGA was 0.23 kcal/mol. The value for TTTCTCACGTGTGAGA was 0.36 kcal/mol; that for CATTACACGTGAGTGG was 0.11 kcal/mol. TTTATCACGTGTGGGC: the “relative binding free energy” value worked out at 0.21 kcal/mol. The value for CTGGTCACGTGATTTT was 0.19 kcal/mol; that for TCTTGCACGTGAGTAT was 0.21 kcal/mol; that for GTTATCACGTGGGTTC was 0.06 kcal/mol. For the sequence GGTTCCACGTGTTTGT, the “relative binding free energy” value amounted to 0.18 kcal/mol. The value for TACGGCACGTGCGTGT was -0.21 kcal/mol; that for GTATGCACGTGTGTTT was 0.1 kcal/mol. The value for AGTATCACGTGTCGAG was 0.23 kcal/mol. The value for CTAGGCACGTGGAGAG was -0.16 kcal/mol; that for TGAAACACGTGTATGA was 0.11 kcal/mol; that for GTGTACACGTGATGAT was 0.04 kcal/mol. As for TTGTGCACGTGTTCAT, the “relative binding free energy” value is -0.02 kcal/mol. With TCGTTCACGTGGCGTA, the “relative binding free energy” value came out at 0.24 kcal/mol. The value for GTTGGCACGTGTCGAG was -0.04 kcal/mol. As for TTGCTCACGTGTAAAG, the figure is 0.24 kcal/mol; as for GTAGTCACGTGTTTAC, 0.23 kcal/mol. As for TCGTTCACGTGATTTG, the figure is 0.44 kcal/mol; as for AGTTGCACGTGGTAGT, -0.11 kcal/mol.

For the sequence AGTATCACGTGCCGGG, the “relative binding free energy” value turned out to be 0.11 kcal/mol. For CCGTGCACGTGGGGTT, the “relative binding free energy” value is -0.22 kcal/mol.

For the sequence TAATGCACGTGAATTG, the “relative binding free energy” value came to 0.22 kcal/mol. As for GTGGTCACGTGTAATT, the figure is 0.34 kcal/mol. As to TTTTACACGTGTATCT, the “relative binding free energy” value stood at 0.01 kcal/mol. The value for TTGGACACGTGATGAT was 0.18 kcal/mol; that for AGGGCCACGTGTGGTG was -0.03 kcal/mol.

As to CATGCCACGTGGGTGG, the “relative binding free energy” value is -0.12 kcal/mol.

Consider CGTTGCACGTGATAGA, for which the “relative binding free energy” value came to 0.04 kcal/mol. The value for TAGTACACGTGAGTCG was 0.41 kcal/mol; that for AGTATCACGTGGTGGC was 0.03 kcal/mol; that for TATAGCACGTGGAGCT was 0.08 kcal/mol. The value for TGGGTCACGTGCCGGG was 0.03 kcal/mol; that for TGTGGCACGTGTACCG was -0.18 kcal/mol. As for TTGCTCACGTGGTGTT, the figure is 0.12 kcal/mol. On to GGTAACACGTGTCGGT, for which the “relative binding free energy” value is 0.02 kcal/mol. Turning to TAGTTCACGTGGCGCT, the “relative binding free energy” value stood at 0.21 kcal/mol. The value for TGTAACACGTGTGATC was 0.2 kcal/mol; that for TAACTCACGTGGGTGT was 0.11 kcal/mol. As for AATCGCACGTGAGGTG, the figure is 0.11 kcal/mol.
